The list shows a part of the results. The list includes weakly bound sequences.
These sequences were tested against MaxL homodimer (UniProt P61244) (assay: universal protein-binding microarray (PBM)). Settings: PBS-based mixture, 10 nM His-tagged protein dimer, 2% milk, 200 ng/uL BSA, 50 ng/uL salmon testes DNA, 0.02% TX-100; detection with Alexa 488 anti-His …; high values mean tight binding; most listed sequences are background and not binding sites; double strand, one strand shown.
UniProt P61244, sequence (P61244 whole entry): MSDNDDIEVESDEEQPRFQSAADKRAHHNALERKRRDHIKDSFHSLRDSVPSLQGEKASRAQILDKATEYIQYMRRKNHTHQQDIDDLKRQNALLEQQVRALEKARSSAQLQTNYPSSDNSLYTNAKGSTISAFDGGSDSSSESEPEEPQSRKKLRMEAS

Row | Sequence | binding signal (normalized occupancy)
1 | AAAGGATA | 0.0808
2 | CAAGATGG | 0.0765
3 | TCGGTAGA | 0.0681
4 | CTATTGGA | 0.0718
5 | AAAACGGC | 0.0699
6 | AGCTTGTG | 0.0721
7 | GGACCTTA | 0.0769
8 | AAAATCAT | 0.0769
9 | CCAGAACG | 0.0763
10 | AACAGCCG | 0.0745
11 | ACTACACC | 0.0784
12 | GGCCAAAC | 0.0669
13 | ACCGACCC | 0.0764
14 | ATATTTTA | 0.0804
15 | GCCTTGTA | 0.0765
16 | AAGTTTTA | 0.0709
17 | CATGCTTC | 0.106
18 | ATAATACG | 0.0771
19 | GGTGCTCA | 0.0774
20 | CGTCCCCC | 0.0763
21 | GGGGCCTA | 0.0764
22 | AAGTGAGG | 0.0763
23 | ACGTATCC | 0.0826
24 | CGCGATTA | 0.0731
25 | ATACCGAA | 0.0724

Row | Sequence | binding signal (normalized occupancy)
26 | GAGGATCA | 0.0709
27 | ACCCGCCG | 0.073
28 | CATGCAGG | 0.097
29 | CAGTAAGG | 0.0715
30 | CGGTATAG | 0.0773
31 | GCCGTCTA | 0.0699
32 | GGGCACAC | 0.0814
33 | ACCCTAGT | 0.0814
34 | CAGCTCAG | 0.0738
35 | TATTCTAA | 0.0794
36 | GGGCCTTA | 0.0795
37 | CCACGAGG | 0.182
38 | ACACTAGT | 0.0808
39 | ACACCCAC | 0.0818
40 | ATATAGAC | 0.081
41 | AGTAATAT | 0.0804
42 | ACTTCCAG | 0.0719
43 | CCTAGCGA | 0.0701
44 | GTATCCAC | 0.0779
45 | GTTGAACA | 0.0747
46 | AACTCGCT | 0.0727
47 | CTTGGATA | 0.0742
48 | AGATTGCT | 0.0707
49 | CGCTCTAA | 0.0739
50 | AAGCCAAA | 0.0681

Row | Sequence | binding signal (normalized occupancy)
51 | TCTTAACA | 0.0828
52 | ATCACATC | 0.0862
53 | CAAAGGGG | 0.0748
54 | AAGAGGCT | 0.0725
55 | TAAAAGTA | 0.0741
56 | AACAGGTT | 0.0777
57 | TCTATCCA | 0.0798
58 | TATCGCAA | 0.0727
59 | ATTAGGGA | 0.0744
60 | AAATAGAC | 0.0765
61 | GATCCTTA | 0.0763
62 | ATCAGCAG | 0.0784
63 | AGCATACT | 0.0804
64 | TGTTTAAA | 0.079
65 | CAGTGCGC | 0.0764
66 | AACGGAGC | 0.0727
67 | ACAAATTG | 0.0753
68 | AGAAGCAC | 0.0778
69 | GGGGAAAA | 0.0738
70 | AGTCGGCA | 0.0757
71 | AACAAACA | 0.0822
72 | CAAAGTTG | 0.0673
73 | CGGCAATC | 0.0716
74 | GAAGAAAA | 0.0726
75 | TCGCGTAA | 0.0735

Row | Sequence | binding signal (normalized occupancy)
76 | AAGTGATT | 0.0761
77 | CACGTGAC | 0.464
78 | GTTCGCTA | 0.0757
79 | CCAGTATC | 0.0758
80 | AAGTGCGT | 0.0808
81 | CGCGGCTA | 0.0695
82 | ACCCCTAG | 0.0748
83 | CGATTGCG | 0.0733
84 | CAGAACCA | 0.0718
85 | TAATTATA | 0.0763
86 | ATTATTAG | 0.0828
87 | AATGCATC | 0.0763
88 | ATTAACAA | 0.0771
89 | CGTATTTA | 0.0795
90 | GAGCTTAC | 0.0705
91 | AAAGAAGG | 0.0766
92 | AGCTAAAT | 0.0741
93 | GTTATTTA | 0.0809
94 | ATCAAAGG | 0.0751
95 | ATCGCCAA | 0.0746
96 | ATATAGCA | 0.0884
97 | ACAACCTC | 0.0799
98 | CTCCGGAG | 0.0721
99 | CCTATGAC | 0.0778
100 | CGGTGCAG | 0.0703

Row | Sequence | binding signal (normalized occupancy)
101 | CCATTCGA | 0.0764
102 | ACCCGACA | 0.0733
103 | CCTCAATC | 0.0737
104 | CAACTGAG | 0.0721
105 | AAACCTTA | 0.0742
106 | ACGGAGGC | 0.069
107 | TAGGGGCA | 0.084
108 | AATTGTTC | 0.0726
109 | GACCTTAC | 0.0765
110 | AAGTCTCA | 0.0786
111 | ATTTAAAA | 0.0757
112 | CTGAAAGA | 0.073
113 | ACTCGACG | 0.0745
114 | CTTTGCCC | 0.0688
115 | AAATCGCC | 0.0738
116 | GGATGTAC | 0.0841
117 | CACAGGCC | 0.0715
118 | ATCTGCTA | 0.08
119 | CAGTTCGC | 0.072
120 | AATACACT | 0.0756
121 | CCGGCAGC | 0.0744
122 | AACGCCTG | 0.0733
123 | GTCTCTTA | 0.0792
124 | GACGTCGC | 0.0783
125 | CATATCGA | 0.078

Row | Sequence | binding signal (normalized occupancy)
126 | CAAGGTAC | 0.0675
127 | TAGATTCA | 0.0731
128 | GAGTACGC | 0.0747
129 | ATGAAGGG | 0.0755
130 | CAGGGAGG | 0.0695
131 | CAGACAAG | 0.0731
132 | CTTCGGCA | 0.0664
133 | AACCGAAA | 0.0692
134 | AAACTCTC | 0.073
135 | GCAGCGAC | 0.0706
136 | GCAATAAC | 0.0746
137 | ATCGTTCG | 0.0755
138 | ACATAACC | 0.0836
139 | TGTCCCAA | 0.0689
140 | AAGCGATT | 0.0674
141 | CAGCCATA | 0.0782
142 | AACCCCAG | 0.0791
143 | AACGAGAT | 0.0745
144 | ACCCGAAG | 0.0738
145 | ATGGCACG | 0.0985
146 | CGCCTTTC | 0.0692
147 | CCCGACTA | 0.0677
148 | CGTCTTTC | 0.0742
149 | GACCATAA | 0.0831
150 | ACATGTCC | 0.0918

Row | Sequence | binding signal (normalized occupancy)
151 | ACGAAAGG | 0.074
152 | CAGATACC | 0.0814
153 | CGTCTCAG | 0.0684
154 | ACGGGGGC | 0.0822
155 | GTGAATGA | 0.0863
156 | ATCATTAC | 0.0816
157 | CGAGTTAC | 0.0701
158 | AACTGACG | 0.0702
159 | CCTGACCG | 0.0715
160 | GTCTCGAA | 0.072
161 | GTATACTA | 0.0768
162 | CCTGGCCA | 0.075
163 | ACGCAGAG | 0.0689
164 | ACAGCTAA | 0.0743
165 | ATCAATTA | 0.0797
166 | CTTGTCTC | 0.0682
167 | AGGGATCA | 0.0775
168 | AATATTTG | 0.0793
169 | AGTGCTTG | 0.0725
170 | CAGTTAGA | 0.0676
171 | GTACGTAA | 0.0761
172 | CGGTGGTC | 0.0775

— PMC4242493
